Single values of this set are uncertain.
test: amyloid nucleation score relative to library mode (yeast Sup35 reporter selection) (log enrichment difference); higher = more amyloid nucleation; sequences are the first 22 residues of the Bri2 peptide extended by up to 12 random residues; details: random library (experiment): 1;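 active = nucleation score significantly above 0 at FDR 0.05; inactive = not significantly above 0 or absent from output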
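Further: [psi-pin-] Saccharomyces cerevisiae expressing SupN fusions, induced by 100 µM Cu2SO4, selected 7 d at 30 °C without adenine and uracil, scored by deep sequencing of output versus input.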

Row | Sequence | amyloid nucleation score
1 | EASNCFAIRHFENKFAVETLICAVMGCPY | 5.09
2 | EASNCFAIRHFENKFAVETLICGKYTQMHQRLQM | 0.224
3 | EASNCFAIRHFENKFAVETLICLVRFHWCIGTEM | -0.211
4 | EASNCFAIRHFENKFAVETLICRGRMVTTSCGVR | inactive
5 | EASNCFAIRHFENKFAVETLICILTPFVSSILIR | 0.796
6 | EASNCFAIRHFENKFAVETLICMVACFAG | inactive
7 | EASNCFAIRHFENKFAVETLICCSEVHW | 8.57
8 | EASNCFAIRHFENKFAVETLICWGGRTRRRSEGW | 5.42
9 | EASNCFAIRHFENKFAVETLICAYRWSWSAQRRG | inactive
10 | EASNCFAIRHFENKFAVETLICCVWKGAVQFGSK | 7.84
11 | EASNCFAIRHFENKFAVETLICPNHCRSGSCQYI | inactive
12 | EASNCFAIRHFENKFAVETLICGVMF | 5.06
13 | EASNCFAIRHFENKFAVETLICAKGSHEGRPCPG | inactive
14 | EASNCFAIRHFENKFAVETLICVQCLFEEDSDKL | 6.67
15 | EASNCFAIRHFENKFAVETLICFVLPHCINKNRC | inactive
16 | EASNCFAIRHFENKFAVETLICQVTVCPWLCASG | 9.08
17 | EASNCFAIRHFENKFAVETLICRVIILSF | inactive
18 | EASNCFAIRHFENKFAVETLICPSKS | inactive
19 | EASNCFAIRHFENKFAVETLICVTPSVRLSWAWA | inactive
20 | EASNCFAIRHFENKFAVETLICHDGEWPGLWDGD | 0.547
21 | EASNCFAIRHFENKFAVETLICFSVWGAWRVWRA | 2.09
22 | EASNCFAIRHFENKFAVETLICFCSLYVAHAV | inactive
23 | EASNCFAIRHFENKFAVETLICMHSTWWKFNLAF | inactive

Row | Sequence | amyloid nucleation score
24 | EASNCFAIRHFENKFAVETLICDMMGLSALARDP | 0.268
25 | EASNCFAIRHFENKFAVETLICHSWVNSRRRAYL | inactive
26 | EASNCFAIRHFENKFAVETLICHVVFMCGVNACV | inactive
27 | EASNCFAIRHFENKFAVETLICHMNS | 5.35
28 | EASNCFAIRHFENKFAVETLICCHQKGMVKMRL | 5.4
29 | EASNCFAIRHFENKFAVETLICLRSGMSKTGR | -0.0755
30 | EASNCFAIRHFENKFAVETLICVKLSF | 5.51
31 | EASNCFAIRHFENKFAVETLICGGVARRFLLCC | inactive
32 | EASNCFAIRHFENKFAVETLICTDGLGGYMWKVR | inactive
33 | EASNCFAIRHFENKFAVETLICASRMVESNRCPP | 1.7
34 | EASNCFAIRHFENKFAVETLICASGQSGATGRGW | inactive
35 | EASNCFAIRHFENKFAVETLICVIVLGVVVLHAG | 5.12
36 | EASNCFAIRHFENKFAVETLICGRRPKGLTDLAC | inactive
37 | EASNCFAIRHFENKFAVETLICWLGWGEWVELTR | inactive
38 | EASNCFAIRHFENKFAVETLICMASQSECTFRWA | inactive
39 | EASNCFAIRHFENKFAVETLICDT | -0.287
40 | EASNCFAIRHFENKFAVETLICMPLKVYTLLLKV | inactive
41 | EASNCFAIRHFENKFAVETLICTDSVLFASMLFR | inactive
42 | EASNCFAIRHFENKFAVETLICLCRARLLTVFKV | inactive
43 | EASNCFAIRHFENKFAVETLICTGEGPRVHGFLW | inactive
44 | EASNCFAIRHFENKFAVETLICVRCTLSRKFGPE | -0.171
45 | EASNCFAIRHFENKFAVETLICRLRMLKRWRGRQ | 4.67

same assay, conditions: random library (experiment): 2

Row | Sequence | amyloid nucleation score
46 | EASNCFAIRHFENKFAVETLICGTNVSASRYLMM | 0.741
47 | EASNCFAIRHFENKFAVETLICYVEMDLSDLVNT | inactive
48 | EASNCFAIRHFENKFAVETLICFFVTYCEWYSSF | inactive
49 | EASNCFAIRHFENKFAVETLICKDFVFILLRGLR | inactive
50 | EASNCFAIRHFENKFAVETLICVNSFFRMFILVM | inactive
51 | EASNCFAIRHFENKFAVETLICRICNHVSRCVEE | inactive
52 | EASNCFAIRHFENKFAVETLICGISG | inactive
53 | EASNCFAIRHFENKFAVETLICVSTSASLIIMPR | inactive
54 | EASNCFAIRHFENKFAVETLICVWA | inactive
55 | EASNCFAIRHFENKFAVETLICIRSRTNALCCNR | inactive
56 | EASNCFAIRHFENKFAVETLICDNRAMDMRVFKR | 3.14
57 | EASNCFAIRHFENKFAVETLICCFWK | 6.48
58 | EASNCFAIRHFENKFAVETLICMSTRRLNIKMVL | inactive
59 | EASNCFAIRHFENKFAVETLICVMYVSTDVLTWW | inactive
60 | EASNCFAIRHFENKFAVETLICLTLS | -0.104
61 | EASNCFAIRHFENKFAVETLICICWNVNC | 7.09

Row | Sequence | amyloid nucleation score
62 | EASNCFAIRHFENKFAVETLICRWKCFFLHDVDV | inactive
63 | EASNCFAIRHFENKFAVETLICIIFIFGDRECWF | inactive
64 | EASNCFAIRHFENKFAVETLICLHLYSFDGYVGY | inactive
65 | EASNCFAIRHFENKFAVETLICVGLTCTEGSVCI | 6.38
66 | EASNCFAIRHFENKFAVETLICGIFCKYFCVCSR | inactive
67 | EASNCFAIRHFENKFAVETLICFLGRVVFTNSVG | inactive
68 | EASNCFAIRHFENKFAVETLICGWYSRVRYFSRF | -0.0392
69 | EASNCFAIRHFENKFAVETLICILK | 3.68
70 | EASNCFAIRHFENKFAVETLICVSSFIVVSQFKR | inactive
71 | EASNCFAIRHFENKFAVETLICLDMNAYYCNHRV | 3.93
72 | EASNCFAIRHFENKFAVETLICMDNCDRVHCGRA | inactive
73 | EASNCFAIRHFENKFAVETLICFFIFFGGYHLAV | inactive
74 | EASNCFAIRHFENKFAVETLICLFRYVLTLSPLA | 0.378
75 | EASNCFAIRHFENKFAVETLICGFGTSR | 3.89
76 | EASNCFAIRHFENKFAVETLICAMDGGF | inactive
77 | EASNCFAIRHFENKFAVETLICFKSDSHDECGRG | 3.01

same assay, conditions: random library (experiment): 3

Row | Sequence | amyloid nucleation score
78 | EASNCFAIRHFENKFAVETLICLEMLKVGAKMSP | inactive
79 | EASNCFAIRHFENKFAVETLICPDSLSGSIGYRV | inactive
80 | EASNCFAIRHFENKFAVETLICCMCPMDNKPGG | 8.92
81 | EASNCFAIRHFENKFAVETLICGFSADKSFSFSE | inactive
82 | EASNCFAIRHFENKFAVETLICDVSLSAETRPVA | 1.15
83 | EASNCFAIRHFENKFAVETLICVKKVKAILHSSL | inactive
84 | EASNCFAIRHFENKFAVETLICLVGWRGGPLTGC | inactive
85 | EASNCFAIRHFENKFAVETLICTCRNKREQDGVE | 9.14
86 | EASNCFAIRHFENKFAVETLICFQVHHSKVSPLK | inactive
87 | EASNCFAIRHFENKFAVETLICVQSDACVDLLSQ | 0.632
88 | EASNCFAIRHFENKFAVETLICVRRPGACPWVVC | 1.11
89 | EASNCFAIRHFENKFAVETLICNRKFSFRRNMCQ | inactive
90 | EASNCFAIRHFENKFAVETLICWSSSRKHKDRIG | 2.47
91 | EASNCFAIRHFENKFAVETLICVPITKLARFMWS | 8.27
92 | EASNCFAIRHFENKFAVETLICWTVVRPCRTLDV | 0.778
93 | EASNCFAIRHFENKFAVETLICNRTNSFMRVESG | inactive
94 | EASNCFAIRHFENKFAVETLICFLWRRSKSVRSV | inactive
95 | EASNCFAIRHFENKFAVETLICMVMQGSSSTFHM | 8.38
96 | EASNCFAIRHFENKFAVETLICGKWRLWVKVFGD | 0.527
97 | EASNCFAIRHFENKFAVETLICLLNERVVVRPVS | inactive
98 | EASNCFAIRHFENKFAVETLICFKVVRGVIFDCG | inactive

Row | Sequence | amyloid nucleation score
99 | EASNCFAIRHFENKFAVETLICRAAHL | inactive
100 | EASNCFAIRHFENKFAVETLICWHAVEGFEWSRK | 3.26
101 | EASNCFAIRHFENKFAVETLICFFVQLTQLCACM | inactive
102 | EASNCFAIRHFENKFAVETLICIDLWIG | 3.61
103 | EASNCFAIRHFENKFAVETLICRNSGSSSRCKYV | inactive
104 | EASNCFAIRHFENKFAVETLICCKAWVD | inactive
105 | EASNCFAIRHFENKFAVETLICRVGDGVAVNWMQ | inactive
106 | EASNCFAIRHFENKFAVETLICKGTGTKRDLPGQ | inactive
107 | EASNCFAIRHFENKFAVETLICADVSGGWCTASW | 6.06
108 | EASNCFAIRHFENKFAVETLICHEATGTLSLQVE | inactive
109 | EASNCFAIRHFENKFAVETLICCCNRHVLLMPRD | 2.31
110 | EASNCFAIRHFENKFAVETLICLLFLFLTFFCLF | inactive
111 | EASNCFAIRHFENKFAVETLICFEMFKSVSHQ | 3.4
112 | EASNCFAIRHFENKFAVETLICLYGRLDTEWWVR | inactive
113 | EASNCFAIRHFENKFAVETLICGPAQ | inactive
114 | EASNCFAIRHFENKFAVETLICLKWHLEYMTRRP | inactive
115 | EASNCFAIRHFENKFAVETLICLGT | 5.53
116 | EASNCFAIRHFENKFAVETLICDEA | inactive
117 | EASNCFAIRHFENKFAVETLICVYLRGAWLARPD | inactive
118 | EASNCFAIRHFENKFAVETLICHRVVLGMVLWGS | inactive
119 | EASNCFAIRHFENKFAVETLICGSDKYGRRLCGW | -0.444

From the supplement of paper PMC12067230
